Substrate: CC#CC(=O)N1CCC[C@H]1c1nc(-c2ccc(C(=O)Nc3ccccn3)cc2)c2c(N)nccn12
Experiment: Conversion of acalabrutinib to ACP-5862 in recombinant CYP enzymes
Format: in vitro ADME
Settings: other: conversion of acalabrutinib to ACP-5862, recombinant CYP3A4

B1: CYP3A4 (Homo sapiens) (protein)
chain: MALIPDLAMETWLLLAVSLVLLYLYGTHSHGLFKKLGIPGPTPLPFLGNILSYHKGFCMFDMECHKKYGKVWGFYDGQQPVLAITDPDMIKTVLVKECYSVFTNRRPFGPVGFMKSAISIAEDEEWKRLRSLLSPTFTSGKLKEMVPIIAQYGDVLVRNLRREAETGKPVTLKDVFGAYSMDVITSTSFGVNIDSLNNPQDPFVENTKKLLRFDFLDPFFLSITVFPFLIPILEVLNICVFPREVTNFLRKSVKRMKESRLEDTQKHRVDFLQLMIDSQNSKETESHKALSDLELVAQSIIFIFAGYETTSSVLSFIMYELATHPDVQQKLQEEIDAVLPNKAPPTYDTVLQMEYLDMVVNETLRLFPIAMRLERVCKKDVEINGMFIPKGVVVMIPSYALHRDPKYWTEPEKFLPERFSKKNKDNIDPYIYTPFGSGPRNCIGMRFALMNMKLALIRVLQNFSFKPCKETQIPLKLSLGGLLQPEKPVVLKVESRDGTVSGA
- Km: 2.78 µM
- kcat: 4.13 pmol/minutes/pmol

From article PMC6656940
